# Results published in PubChem BioAssay AID624296 (National Center for Advancing Translational Sciences (NCATS), 2012).
# Where “and” joins values, the source holds several entries; their conditions need not be identical. Equal entries are not always repeated. About 9,900 (2.8%) of roughly 350,000 compounds were called active. The inconclusive results got no clear call from the source; some entries with a clear call stand among them for comparison. Calls follow the shape of the dose curve; as a rule, active = well fitted activation curve with a large enough effect; inconclusive = small, poorly fitted or top-dose-only effect; inactive = no such curve, though single readings can be large or run the other way. A potency beside an inconclusive call is a rough fit, not a confirmed value.
# Test: A quantitative high throughput screen for small molecules that induce DNA re-replication in MCF 10a normal breast cells. Also: nearly all actives have a fitted effect of over 50% in size. As to activity, positive = re-replication: % of control where 0% means no effect.
# Details: MCF 10A DNA re-replication, Hoechst nuclear intensity, 48 h; activity, positive = re-replication: at 46.1 µM (top of the series)
# Potency is read from the fitted curve at half-maximal effect; tags tell the direction and shape of the fitted curve.
Compound,Potency,"activity, positive = re-replication"
NC(=O)CC(NC(=O)c1ccc(Br)cc1)c1ccc(N2CCCCCC2)c([N+](=O)[O-])c1 (stereo not given),"inconclusive: 0.0046 µM [activator, full curve]",
CCN1CCN(c2ccc(NC(=O)c3ccc4c(c3)[nH]c(=O)n4Cc3ccc(OC)cc3)cc2)CC1,"inconclusive: 1.03 µM [activator, full curve, poor fit]",
OC(CNC1CCCC1)COCCOc1ccc(Br)cc1 (stereo not given),,inactive: -4.08%
NC(N)=N/N=C/c1ccc(Cl)cc1Cl,,inactive: 0.783%
S=C(Nc1ccc(Cl)c(Cl)c1)NC1CCN(Cc2ccccc2)CC1,"inconclusive: 18.4 µM [activator, single point]",
CC(C)(C)OC(=O)NCCCC[C@H](NC(=O)c1nc[nH]c1C(=O)N[C@@H](CCCCNC(=O)OC(C)(C)C)C(=O)OC(C)(C)C)C(=O)OC(C)(C)C,"inconclusive: 16.4 µM [activator, partial curve, poor fit]",
Cc1ccccc1N1CCN(Cc2c[nH]c3ccccc23)CC1,"inconclusive: 2.59 µM [activator, single point]",
COc1ccc(-c2n[nH]c(=S)n2-c2cc(OC)ccc2OC)cc1,"inconclusive: 29.1 µM [activator, single point]",
CCOC(=O)C1=C(C)NC(C)=C(C(=O)OCC)C1C,"inactive and inconclusive: 23.1 µM [activator, single point]",
COc1cc(OC)cc(-c2sc3ccc(OC)cc3c2-c2ccc3cc[nH]c3c2)c1,"inconclusive: 29.1 µM [activator, single point]",
Clc1ccc(-c2csc3ncnc(N4CCc5ccccc5C4)c23)cc1,"inconclusive: 4.61 µM [activator, full curve, poor fit]",
CCN(CC)CCOc1ccc(Br)cc1,,inactive: -2.99%
Cc1cccc(COC(=O)Nc2ccc(NC(=O)c3ccccc3Cl)cc2)c1,"inconclusive: 32.6 µM [activator, single point]",
CCOCCOC(=O)COc1ccc2c(-c3ccccc3)cc(=O)oc2c1,,inactive: -68.6%
COc1ccc(C(=O)/C=C/Nc2cccc(C)n2)cc1OC,"inconclusive: 14.1 µM [activator, single point]",
Nc1ncnc2sc3c(c12)CCNC3,,inactive: 6.5%
CCCCCCCCCCCCCCC(O)C[N+](C)(CCO)CCO (stereo not given),"inconclusive: 14.6 µM [activator, single point]",
COC(=O)c1sc(C(C)(C)C)cc1CS(=O)(=O)c1ccccn1,,inactive: -0.31%
COCCOC(=O)C1=C(C)N=C2SCCC(=O)N2C1/C=C/c1ccccc1 (stereo not given),,inactive: 2.41%
Cc1cc(NCCOCCO)n2ncc(-c3ccc(Cl)cc3)c2n1,"inconclusive: 4.61 µM [activator, full curve, poor fit]",
COc1ccc(C(=O)N/N=C(\C)CC(=O)Nc2ccc(Cl)cn2)cc1,"inconclusive: 1.16 µM [activator, full curve, poor fit]",
C/C(=N\NC(=O)c1cccs1)c1ccc(C(=O)O)s1,,inactive: 8.77%
CN(C)C(=O)C1CCC(=O)N1Cc1cccs1 (stereo not given),,inactive: -1.57%
Cc1ccc2nc(-c3ccccc3)cc(C(=O)N3CCN(S(=O)(=O)c4c(C)noc4C)CC3)c2c1,"inconclusive: 6.51 µM [activator, partial curve, poor fit]",

Compound,Potency,"activity, positive = re-replication"
Clc1ccccc1N/N=C/c1ccc2c(c1)OCO2,"inconclusive: 20.6 µM [activator, partial curve, poor fit]",
COc1ccc2nc(Nc3nc4cc5c(cc4s3)OCCO5)sc2c1,"inconclusive: 8.2 µM [activator, partial curve, poor fit]",
CCc1ccccc1OCC(=O)Nc1cccc(S(=O)(=O)NCc2ccco2)c1,"inconclusive: 29.1 µM [activator, single point]",
Cc1ccc(NC(=O)CSc2ccc(-c3ccco3)nn2)c(C)c1,"inconclusive: 29.1 µM [activator, single point]",
O=C(c1ccc(O)c(Br)c1)c1cc(Br)ccc1O,"inconclusive: 20.6 µM [activator, single point]",
Cc1cc(C(=O)N/N=C/c2c(CO)cnc(C)c2O)c2ccccc2n1,"inconclusive: 20.6 µM [activator, single point]",
Cc1cccc(NC(=O)CN2C(=O)C(C)Oc3ccccc32)n1 (stereo not given),,inactive: -8.13%
Cc1ccccc1CN1C(=O)[C@@H]2Cc3c([nH]c4ccccc34)C(C)(C)N2C1=O,"inconclusive: 29.1 µM [activator, single point]",
COc1ccc(CC2(CO)CCN(Cc3ccc4c(c3)CCO4)CC2)cc1,"inconclusive: 0.517 µM [activator, full curve]",
O=C(CSc1nnc(COc2ccccc2)n1Cc1ccco1)c1ccc(F)cc1,"inconclusive: 29.1 µM [activator, single point]",
COC(=O)c1cc2oc(C)cc2n1CC(=O)N1CCCc2ccccc21,,inactive: 8.47%
C[C@H](C(=O)CC(=O)OC(C)(C)C)[C@H](O)c1ccc(C(F)(F)F)cc1,"inconclusive: 29.1 µM [activator, single point]",
COc1cc(-c2c(-c3ccsc3)sc3ccccc23)cc(OC)c1OC,"inconclusive: 25.9 µM [activator, single point]",
Cc1c(C)c2ccc(OCC(=O)NC3CCN(Cc4ccccc4)CC3)c(C)c2oc1=O,,inactive: 6.14%
COc1cc(/C=N/N=C2/NC(=O)C(Cc3ccc(F)cc3)S2)ccc1O (stereo not given),"inconclusive: 18.4 µM [activator, single point]",
O=c1cnn(-c2ccccc2)c(-c2ccccc2)c1,,inactive: 25.2%
CCN(CC)CCCNC(=O)CCn1nc(-c2ccccc2)ccc1=O,"inconclusive: 29.1 µM [activator, single point]",
Nc1nonc1-n1nnc(C(=O)N/N=C/c2cccs2)c1-c1ccc2c(c1)OCO2,,inactive: 0.746%
N#CNC(=Nc1ccccc1)SCc1ccc(C(=O)O)cc1,"inconclusive: 20.6 µM [activator, partial curve, poor fit]",
CCOc1ccc(NC(=O)CN2CCN(CC(=O)c3ccc(OCC)cc3)CC2)cc1,"inconclusive: 0.0052 µM [activator, full curve, poor fit]",
Cc1ccc(OCc2cc(C(=O)NCC(C)c3ccccc3)no2)cc1C (stereo not given),"inconclusive: 29.1 µM [activator, single point]",
CCC(CC)C(=O)c1c[nH]c(C(=O)NCCOC)c1,,inactive: -0.461%
OCC(Cc1ccccc1)Nc1c2ccccc2nc2ccccc12 (stereo not given),"inconclusive: 20.6 µM [activator, single point]",
COc1ccc(NC(=O)c2ccc3c(SCC(=O)O)c4c(nc3c2)CCCC4)c(OC)c1,"inconclusive: 1.16 µM [activator, single point]",

Compound,Potency,"activity, positive = re-replication"
COC(=O)Oc1nsnc1N1CCOCC1,,inactive: -1.52%
O=C(NCCSCc1ccc(Cl)cc1Cl)c1ccc(CN2CCOCC2)cc1,"inconclusive: 12.6 µM [activator, single point]",
O=C(NC(=S)NC1CCCc2ccccc21)c1ccco1 (stereo not given),"inconclusive: 29.1 µM [activator, single point]",
CCCNC(=O)NC(=O)CSc1nc2ccccc2n1CC(C)C,,inactive: -3.28%
CCOc1ccccc1NC(=O)c1cc(C(=O)c2cc(Br)ccc2O)coc1=N,active: 7.31 µM,
COc1ccc(/C=C/C(=O)Oc2cccc(/C=N/NC(=O)Cc3ccc(Br)cc3)c2)cc1,"inconclusive: 4.11 µM [activator, partial curve]",
CCC12CN3CC(CC)(CN(C1)C3c1ccc([N+](=O)[O-])o1)C2=O (stereo not given),,inactive: -13.8%
COc1ccc(NS(=O)(=O)c2cn(C)cn2)cc1OC,"inconclusive: 25.9 µM [activator, single point]",
CCOC(=O)c1ccccc1NC(=O)CSc1nc2ccccc2c(=O)[nH]1,active: 18.4 µM,
COc1ccc(CC(NC(C)=O)C(=O)NC2CCN(c3ncccc3[N+](=O)[O-])CC2)cc1 (stereo not given),"inconclusive: 0.58 µM [activator, partial curve, poor fit]",
CCN(CC)c1ccc(/C=N/NC(=O)c2c[nH]c3ccccc23)cc1,"inconclusive: 29.1 µM [activator, single point]",
O=S(=O)(/N=C(/c1ccccc1)N1CCCCC1)c1ccccc1,"inconclusive: 29.1 µM [activator, single point]",
COc1ccc(CC(=O)NCC2CCCN(Cc3ccc(OC(F)(F)F)cc3)C2)cc1 (stereo not given),"inconclusive: 29.1 µM [activator, partial curve, poor fit]",
CC(C)N(C(=O)Cn1cc(S(=O)(=O)CC(=O)NC2CCCCC2)c2ccccc21)C(C)C,,inactive: 1.41%
O=C(CCN1C(=O)/C(=C/c2ccccc2F)SC1=S)Nc1cccnc1,"inconclusive: 23.1 µM [activator, single point]",
NNC(=O)c1cc2c(s1)-c1cc(Cl)ccc1SC2,active: 20.6 µM,
CCOC(=O)c1c(C)oc2c1c(C=NCC1CCCO1)c(O)c1ccccc12 (stereo not given),"inconclusive: 3.66 µM [activator, full curve]",
COC(=O)c1ccc(CSc2nc(C)nc3sc(C)c(C)c23)o1,"inconclusive: 29.1 µM [activator, single point]",
COc1cccc(-c2cc3onc(-c4ccccc4)c3c(=O)n2C)c1,,inactive: -15.1%
COc1cc(/C=C/C(=O)O)cc(S(=O)(=O)Nc2ccc3c(c2)CCC3)c1OC,,inactive: 6.04%
CSS(=O)(=O)c1cccc2cccnc12,active: 18.4 µM,
CCc1ccccc1OCCOc1ccc(C)cc1OC,"inconclusive: 18.4 µM [activator, single point]",
